In PubChem BioAssay AID588342 (National Center for Advancing Translational Sciences (NCATS), 2011):
About 25,000 (6.9%) of roughly 360,000 compounds were called active. Inconclusive means that the source gave no clear call. Such entries were picked first, then a sample of the others. The call rests on the fitted dose curve; in most records, active means well fitted inhibition curve with a large enough effect; inconclusive means small, poorly fitted or top-dose-only effect; inactive means flat fitted curve, though single readings scatter. A potency beside an inconclusive call is a rough fit, not a confirmed value.

Target: Luciferin 4-monooxygenase (Photinus pyralis) (UniProt P08659)
UniProt P08659, sequence (P08659 whole entry, looked up): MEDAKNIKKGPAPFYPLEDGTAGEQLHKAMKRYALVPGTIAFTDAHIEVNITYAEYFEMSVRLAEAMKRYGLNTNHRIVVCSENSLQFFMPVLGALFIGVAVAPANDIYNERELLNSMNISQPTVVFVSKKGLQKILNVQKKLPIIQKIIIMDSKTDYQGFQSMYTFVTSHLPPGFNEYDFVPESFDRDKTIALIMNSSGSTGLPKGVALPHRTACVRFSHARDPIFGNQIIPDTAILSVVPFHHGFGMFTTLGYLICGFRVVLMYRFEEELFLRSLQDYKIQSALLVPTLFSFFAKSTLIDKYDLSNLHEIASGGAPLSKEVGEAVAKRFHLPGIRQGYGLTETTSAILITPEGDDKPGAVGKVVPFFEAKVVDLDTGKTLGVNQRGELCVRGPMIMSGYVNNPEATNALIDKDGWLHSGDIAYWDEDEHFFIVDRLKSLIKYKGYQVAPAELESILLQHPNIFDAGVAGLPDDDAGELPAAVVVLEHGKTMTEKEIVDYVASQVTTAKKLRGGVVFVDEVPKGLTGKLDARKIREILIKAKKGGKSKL
Experiment: qHTS profiling assay for firefly luciferase inhibitor/activator using purifed enzyme and Km concentrations of substrates (counterscreen for miR-21 project); further: nearly all actives have a fitted effect of over 55% in size;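 on activity change, negative = inhibition: plate controls were vehicle for no effect and reference inhibitor for full effect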
Conditions: purified FLuc, luminescence inhibition; series mostly up to 57.5 µM; activity change, negative = inhibition: at the top concentration
Procedure, shortened: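 Purified P. pyralis luciferase, 10 nM final, with Km-level 10 uM D-luciferin and 10 uM ATP in 50 mM Tris acetate pH 7.5, 10 mM Mg acetate, 0.01% Tween-20, 0.05% BSA; 6-point qHTS titration about 60 µM downward; luminescence read.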
Potency means the concentration at half of the fitted maximal effect; tags describe the fitted curve by direction and shape.

| Compound | Potency | activity change, negative = inhibition |
| --- | --- | --- |
| O=C(Nc1nc2c(F)cccc2s1)c1ccc2c(c1)OCCO2 | active: 0.536 µM |  |
| CCn1c(C)cc(/C=C2/SC(=O)N(CC(=O)N3CCCC3)C2=O)c1C | active: 21.3 µM |  |
| COc1ccc(C)cc1NC(=O)CSc1nnc(-c2ccc(C)cc2)o1 | inconclusive: 23.9 µM [inhibitor, partial curve, poor fit] |  |
| CC(=O)c1ccc(NC(=O)c2cc3c(=O)oc4ccc(C)cc4c3s2)cc1 |  | inactive: -5.33% |
| Cc1ccc2nc(NCC(N)=O)nc(-c3ccccc3)c2c1 |  | inactive: 0.396% |
| COc1ccc(Nc2nc(N)nc(CSc3n[nH]c(-c4ccccc4)n3)n2)cc1 | inconclusive: 21.3 µM [inhibitor, single point] |  |
| O=C(O)CCSCC(=O)c1ccc2c(c1)OCCO2 | active: 10.7 µM |  |
| Oc1c(N=Nc2ccccc2)sc2ccccc12 | active: 0.379 µM |  |
| Cc1nnc(Oc2ccc([N+](=O)[O-])cc2)c2ccccc12 | inconclusive: 23.9 µM [inhibitor, partial curve, poor fit] |  |
| CCCc1cc(C(=O)N2CCCC(CO)(CCCc3ccccc3)C2)n(C)n1 (stereo not drawn) |  | inactive: -2.74% |
| Cc1c(C(=O)O)oc2c1-c1nn(Cc3ccccc3Cl)cc1CC2 | inconclusive: 26.9 µM [inhibitor, partial curve, poor fit] |  |
| Cc1ccc(OCCOCCN(C)C)c(Cl)c1 |  | inactive: -2.23% |
| O=C(O)c1cccc(NC(=S)N/N=C/c2ccccc2OCc2ccc(Br)cc2)c1 | active: 23.9 µM |  |
| O=C(NCc1ccncc1)c1cn(-c2ccccc2)nc1-c1cccnc1 | inconclusive: 30.1 µM [inhibitor, partial curve, poor fit] |  |
| CO/C=C\C=C/c1nnn(-c2ccc(Cl)cc2)n1 | inconclusive: 30.1 µM [inhibitor, partial curve, poor fit] |  |
| O=C(Nc1ccc(C(=O)N2CCCC2)cc1)c1ccccc1F | inconclusive: 23.9 µM [inhibitor, single point] |  |
| Nc1c(-c2ccc(Cl)cc2)cnc2c(-c3ccccc3)cnn12 | active: 0.478 µM |  |
| O=C(Nc1ccc(F)cc1F)c1ccc2ncsc2c1 | active: 26.9 µM |  |
| O=C(NCCC1=CCCCC1)c1cc(COc2ccc(F)cc2Cl)on1 | inconclusive: 23.9 µM [inhibitor, partial curve, poor fit] |  |
| Cn1c(-c2ccc(C(C)(C)C)cc2)n[nH]c1=S | inconclusive: 23.9 µM [inhibitor, single point] |  |
| CCCC(c1nnnn1C1CCCC1)N1CCN(c2ccccc2F)CC1 (stereo not drawn) |  | inactive: 3.61% |
| O=C(Nc1ccc(Cl)cc1)C1=Cc2cc(Cl)ccc2OC1 |  | inactive: -4.12% [at 2.3 µM] |
| S=C(NCc1ccco1)NCC1CCCO1 (stereo not drawn) |  | inactive: -0.822% |
| COc1ccc(CCNC(=O)c2cnc3ccccn3c2=O)cc1 | inconclusive: 37.9 µM [inhibitor, partial curve, poor fit] |  |
| COC(=O)c1ccc(OC(=O)c2cccnc2SC)cc1 | inconclusive: 23.9 µM [inhibitor, single point] |  |

| Compound | Potency | activity change, negative = inhibition |
| --- | --- | --- |
| NC(=O)c1ccsc1NC(=O)c1ccc(S(=O)(=O)N2CCCCC2)cc1 | inconclusive: 26.9 µM [inhibitor, single point] |  |
| CCCCOc1ccc(C(=O)Nc2ccc3c(c2)N(C(C)=O)CCC3)cc1 | inconclusive: 13.5 µM [inhibitor, partial curve, poor fit] |  |
| Cc1cc(-c2ccc(Cl)s2)n[nH]1 | inconclusive: 21.3 µM [inhibitor, single point] |  |
| O=C(Cn1c(O)c(/C=C2\C=Nc3ccccc32)sc1=O)N1CCOCC1 | inconclusive: 21.3 µM [inhibitor, single point] |  |
| Cc1cc(NC(=O)COC(=O)C2CCN(S(=O)(=O)c3ccccc3)CC2)c([N+](=O)[O-])cc1C |  | inactive: 4.89% |
| Cc1nn(-c2nnc(NC3CCCCC3)nn2)c(C)c1Br | active: 4.26 µM |  |
| COc1ccc(/C=N/NC(=O)c2cccc(NC(=O)c3ccc(F)cc3)c2)c(C(=O)O)c1OC | inconclusive: 26.9 µM [inhibitor, partial curve] |  |
| COc1ccc(-c2ccc(SCC(=O)Nc3nccs3)nn2)cc1OC | inconclusive: 2.39 µM [inhibitor, full curve] |  |
| CCOC(=O)/C(=C/c1c(C)n(C)c2ccc([N+](=O)[O-])cc12)C(C)=O |  | inactive: -3.93% |
| CC(NC(=O)c1ccc(S(=O)(=O)Nc2ccccc2)cc1)c1ccc(S(N)(=O)=O)cc1 (stereo not drawn) |  | inactive: 0.247% |
| Cc1ccc(C2=NN(C(=O)CCCC(=O)O)C(c3ccc4c(c3)OCO4)C2)cc1 (stereo not drawn) | inconclusive: 37.9 µM [inhibitor, single point] |  |
| O=C(c1ccc(-c2ccccc2)cc1)N1CCCC1 | inconclusive: 37.9 µM [inhibitor, single point] |  |
| Cc1ccc(NC(=O)c2ccc([N+](=O)[O-])cc2)cc1S(=O)(=O)N(C)C | inconclusive: 9.53 µM [inhibitor, partial curve] |  |
| Cc1ccc2nc(SCC(=O)c3ccc4c(c3)OCO4)[nH]c2c1 | inconclusive: 30.1 µM [inhibitor, partial curve, poor fit] |  |
| CCC(Sc1nc2ncccc2[nH]1)C(=O)Nc1ccccc1F (stereo not drawn) |  | inactive: -2.81% |
| C/C(=N\NC(=O)c1csc(C)c1C)c1ccc(C)s1 | inconclusive: 13.5 µM [inhibitor, partial curve] |  |
| Cc1ccc(S(=O)(=O)N/N=C/c2c[nH]c3ccccc23)cc1 | inconclusive: 23.9 µM [inhibitor, single point] |  |
| Nc1nc(CSc2ncccn2)nc(Nc2ccccc2)n1 | active: 23.9 µM |  |
| O=C(O)CC/C(=C\c1ccc(N2CCOCC2)c([N+](=O)[O-])c1)c1nc2ccccc2s1 | inconclusive: 19 µM [inhibitor, single point] |  |
| OCCC1CN(Cc2nc3ccccc3s2)CCN1C1CCCC1 (stereo not drawn) |  | inactive: -0.72% |
| COc1ccc(CCNc2nc(-c3ccc(NC(C)=O)cc3)cs2)cc1OC | inconclusive: 37.9 µM [inhibitor, partial curve, poor fit] |  |
| CCOC(=O)c1cnn(C)c1NC(=O)c1ccc([N+](=O)[O-])cc1 |  | inactive: 1.92% |
| Cc1cccc(NC(=O)C2CCN(S(=O)(=O)c3c(C)noc3/C=C/c3ccco3)CC2)c1 |  | inactive: -0.915% |
| CN(C)c1ccc(N=c2sc3ccccc3n2C)cc1 | active: 6.01 µM |  |
| CC(C)Cc1cc(C(=O)Nc2cccc(O)c2)no1 | active: 0.675 µM |  |

| Compound | Potency | activity change, negative = inhibition |
| --- | --- | --- |
| O=C(/C=C/c1ccc(Br)cc1)NCc1cccs1 | inconclusive: 21.3 µM [inhibitor, single point] |  |
| CCc1ccccc1Nc1nc(-c2cccnc2)cs1 | inconclusive: 26.9 µM [inhibitor, partial curve] |  |
| COc1c(C)cccc1C(=O)Nc1ccc(N2CCN(S(C)(=O)=O)CC2)cc1 | active: 15.1 µM |  |
| CNc1nnc(-c2cc3cc(Cl)ccc3oc2=O)s1 | inconclusive: 7.57 µM [inhibitor, partial curve] |  |
| Cc1ccc(COC(=O)Cc2coc3cc(O)ccc23)cc1 | inconclusive: 23.9 µM [inhibitor, partial curve, poor fit] |  |
| Nc1ccc2c(c1)C(=O)C(=O)c1ccccc1-2 | inconclusive: 37.9 µM [inhibitor, partial curve, poor fit] |  |
| Cc1ccc(S(=O)(=O)N2CCCC2)cc1C(=O)NCCN1CCOCC1 | inconclusive: 26.9 µM [inhibitor, partial curve, poor fit] |  |
| CCOC12NC(=O)CC(=O)N1C(c1ccccc1)=CS2 (stereo not drawn) | inconclusive: 26.9 µM [inhibitor, partial curve, poor fit] |  |
| COc1ccccc1N1CCN(/N=C/c2cc(Br)ccc2F)CC1 | inconclusive: 26.9 µM [inhibitor, single point] |  |
| COc1ccc(-n2nc(C(=O)NCC(=O)N3CCN(c4ccccc4OC)CC3)c3ccccc3c2=O)cc1OC | active: 3.79 µM |  |
| CC(NC(=O)c1ccccc1SCC(=O)N1CCCC1)c1ccc(F)cc1 (stereo not drawn) | inconclusive: 26.9 µM [inhibitor, single point] |  |
| CCC(=O)Nc1nnc(S(=O)(=O)N(C)c2cc(C)cc(C)c2)s1 |  | inactive: -0.282% |
| CCc1ccc(OCc2nnc(SCC(=O)Nc3cccc(C(=O)N4CCOCC4)c3)o2)cc1 | inconclusive: 19 µM [inhibitor, partial curve] |  |
| CCOC(=O)c1cnc2ccc(OC)cc2c1Nc1cccc(C(C)=O)c1 | inconclusive: 26.9 µM [inhibitor, partial curve] |  |
| CCCC(=O)n1nc(-c2ccco2)nc1SCc1ccccc1 | active: 9.53 µM |  |
| CCC1CCc2sc(C(=O)O)cc2C1 (stereo not drawn) | inconclusive: 26.9 µM [inhibitor, single point] |  |
| O=C(CSc1nnnn1-c1ccccc1)c1ccc(O)cc1O | inconclusive: 26.9 µM [inhibitor, single point] |  |
| CCOC(=O)C1=C(COC(=O)COc2ccc(OCC)cc2)NC(=O)NC1C (stereo not drawn) |  | inactive: 1.18% |
| Cc1ccc(NC(=O)CC(=O)c2ccccc2)cc1C | active: 15.1 µM |  |
| Cc1ccc(C(=O)NS(=O)(=O)c2ccc(N=NN(C)C)cc2)cc1 | inconclusive: 19 µM [inhibitor, partial curve, poor fit] |  |
| O=C(Nc1cccc2ccccc12)N1N=CCC1c1ccccc1 (stereo not drawn) | inconclusive: 23.9 µM [inhibitor, single point] |  |
| CCOC(=O)N/N=C/c1cc(C)n(-c2cccc3ccccc23)c1C | inconclusive: 37.9 µM [inhibitor, partial curve, poor fit] |  |
| CCOc1ccc(C(=O)OCC(=O)Nc2cccc(S(=O)(=O)N3CCCC3)c2)cc1 | inconclusive: 23.9 µM [inhibitor, single point] |  |
